# Data taken from PubChem BioAssay AID588855 (National Center for Advancing Translational Sciences (NCATS), 2011).
# Hit rate of the full screen: of about 410,000 compounds, about 5,000 (1.2%) were called active. This list was built around the results that the source calls inconclusive (neither active nor inactive); the mix of calls is not that of the screen. Calls follow the shape of the dose curve; as a rule, active = well fitted inhibition curve with a large enough effect; inconclusive = small, poorly fitted or top-dose-only effect; inactive = no such curve, though single readings can be large or run the other way. Potencies of inconclusive entries are doubtful fits and often do not repeat.
# Experiment: qHTS for Inhibitors of TGF-b; also: nearly all actives have a fitted effect of over 65% in size
# Details: HepG2 CAGA-GFP TGF-b/SMAD3 reporter, GFP fluorescence, 18 h, TGF-beta stimulated, 500 pg/mL final; series mostly up to 46.1 µM
# How it was run: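 Smad-responsive CAGA-GFP expression was quantified in HEPG2 cells exposed to compounds and 500 pg/mL final TGF-beta for 18 h at 37 degrees C; unstimulated wells defined full inhibition.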
# Potency is read from the fitted curve at half-maximal effect; tags tell the direction and shape of the fitted curve.
row,SMILES,Potency
1,O=C(COC(=O)c1ccc(O)cc1)NCC1COc2ccccc2O1 (centres undefined),"inconclusive: 25.1 µM [inhibitor, single point]"
2,Cc1ccc2c(c1)Oc1ccc(NC(=O)CCl)cc1C(=O)N2,active: 14.1 µM
3,Cc1cc(Cl)cc(Cl)c1CNc1c([N+](=O)[O-])c(=O)oc2ccccc12,"inconclusive: 5.62 µM [inhibitor, single point]"
4,Cc1nn(CCC(=O)NNC(=S)Nc2ccccc2)c(C)c1Br,"inconclusive: 5.62 µM [inhibitor, full curve]"
5,Cc1ccc(-c2cc(-c3cccs3)[nH]n2)c(O)c1,"inconclusive: 35.5 µM [inhibitor, single point]"
6,Cc1ccc2nc(/N=C(\N)NC(=O)NC3CCCCC3)nc(C)c2c1,active: 10 µM
7,CCCCNC(=O)COn1nnc2ccc(S(=O)(=O)N3CCOCC3)cc21,"inconclusive: 22.4 µM [inhibitor, single point]"
8,CC(=O)Nc1nc2c(ccc3ccccc32)s1,"inconclusive: 12.6 µM [inhibitor, partial curve]"
9,O=C(CCCOc1ccc(Cl)cc1Cl)N/N=C/c1ccccc1,"inconclusive: 15.8 µM [inhibitor, single point]"
10,Cc1cc(Nc2ccc3c(c2)OCCO3)c2cccc(C)c2n1,inactive
11,O=C(Nc1nc(COc2ccccc2)cs1)c1ccccc1F,"inconclusive: 0.112 µM [inhibitor, full curve, poor fit]"
12,CC1CN(C(=S)SCC(=O)c2ccc(Cl)cc2)CC(C)O1 (centres undefined),inactive
13,CC(C)Cc1ccc(CN2CCCC(NC(=O)c3ccnn3C)C2)cc1 (centres undefined),"inconclusive: 4.47 µM [inhibitor, full curve, poor fit]"
14,CCS(=O)(=O)c1c(Nc2cc(C)ccc2C)sc(C(=O)c2ccccc2)c1N,"inconclusive: 22.4 µM [inhibitor, partial curve, poor fit]"
15,COc1cccc(-c2nc(S(=O)(=O)c3ccccc3)c(N3CCC(C)CC3)o2)c1,"inconclusive: 14.1 µM [inhibitor, single point]"
16,CC1(C)CC(=O)C(=Cc2cn(-c3ccccc3)nc2-c2ccc(Cl)cc2)C(=O)C1,inactive
17,CC1=C(C(=O)Nc2ccccc2)C(c2cc(Br)ccc2F)n2ncc(C(=O)Nc3ccccc3)c2N1 (centres undefined),"inconclusive: 6.31 µM [inhibitor, partial curve, poor fit]"
18,Cc1cccc(-c2cccc(NC(=O)C3CCCN(Cc4cccnc4)C3)c2)c1 (centres undefined),"inconclusive: 22.4 µM [inhibitor, single point]"
19,CC(=O)c1ccc([C@@H]2C[C@]34CN(Cc5cccc(C(F)(F)F)c5)S(=O)(=O)[C@H]3C[C@H]2O4)cc1,"inconclusive: 35.5 µM [inhibitor, single point]"
